Results taken from paper PMC4336329 (PLoS ONE, 2015).
The campaign covered roughly 310,000 compounds. About 2,200 (0.71%) showed an effect of 50% or more. The effect is printed as a negative number. The list shows a part of the results.

biological target: human ether-à-go-go-related gene (hERG) potassium channel (human, UniProt Q12809); experiment: primary screen, population patch clamp on CHO cells stably expressing hERG
Sequence (Q12809 whole entry, looked up): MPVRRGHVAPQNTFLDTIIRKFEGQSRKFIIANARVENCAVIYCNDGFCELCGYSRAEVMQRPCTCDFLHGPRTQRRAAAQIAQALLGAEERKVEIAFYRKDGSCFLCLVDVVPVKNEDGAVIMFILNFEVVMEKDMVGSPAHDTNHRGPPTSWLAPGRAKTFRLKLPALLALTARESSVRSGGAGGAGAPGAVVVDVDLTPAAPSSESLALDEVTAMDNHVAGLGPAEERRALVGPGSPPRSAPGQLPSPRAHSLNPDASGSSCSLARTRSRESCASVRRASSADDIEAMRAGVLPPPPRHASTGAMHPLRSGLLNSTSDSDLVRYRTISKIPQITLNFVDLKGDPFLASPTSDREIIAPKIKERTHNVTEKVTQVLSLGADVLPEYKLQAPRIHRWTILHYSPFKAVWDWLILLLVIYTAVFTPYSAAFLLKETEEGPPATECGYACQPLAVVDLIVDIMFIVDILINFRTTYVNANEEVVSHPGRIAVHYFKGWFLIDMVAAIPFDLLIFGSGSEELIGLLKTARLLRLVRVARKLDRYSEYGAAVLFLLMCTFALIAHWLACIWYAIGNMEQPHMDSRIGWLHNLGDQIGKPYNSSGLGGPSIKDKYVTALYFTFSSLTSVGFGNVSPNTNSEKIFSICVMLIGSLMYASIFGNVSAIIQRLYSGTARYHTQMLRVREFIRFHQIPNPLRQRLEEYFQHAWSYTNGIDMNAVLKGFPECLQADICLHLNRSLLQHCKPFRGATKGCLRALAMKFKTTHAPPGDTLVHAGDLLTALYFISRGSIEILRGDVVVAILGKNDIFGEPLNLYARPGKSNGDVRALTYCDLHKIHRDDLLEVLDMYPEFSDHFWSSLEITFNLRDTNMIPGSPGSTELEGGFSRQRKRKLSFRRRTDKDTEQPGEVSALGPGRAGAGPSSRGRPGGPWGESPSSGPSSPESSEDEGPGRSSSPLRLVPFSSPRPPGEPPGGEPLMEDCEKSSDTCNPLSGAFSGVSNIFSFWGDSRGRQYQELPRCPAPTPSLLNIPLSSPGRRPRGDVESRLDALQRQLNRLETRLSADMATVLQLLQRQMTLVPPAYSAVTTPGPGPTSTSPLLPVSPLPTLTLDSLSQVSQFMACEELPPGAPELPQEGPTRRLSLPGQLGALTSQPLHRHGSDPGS

Compound | hERG current change (%, negative = inhibition) at 1uM
C1=C(CCNCc2ccccc2)CCCC1.Cl | 12.4%
Cc1ccc(CNc2nc3ccccc3n2C)cc1 | -1.06%
COc1ccc(NC(=O)C23CC4CC(C2)CC(n2cnc(Br)n2)(C4)C3)c(C)c1 | 5.85%
CCC(=O)Nc1cc(C(=O)NCC2CCCN2CC)c(OC)cc1N(C)C (stereo not drawn) | -5.97%
COc1cc(NC(=O)COC(=O)CCc2cc(OC)c(OC)c(OC)c2)cc(OC)c1 | 9.48%
CC(=O)Nc1ccc(OC/C=C(\C)Cl)cc1 | 12.6%
CN(C)C(CNC(=O)c1cc(Br)ccc1Cl)c1ccco1 (stereo not drawn) | 12.4%
Cc1ccc(OC(F)F)c(NC(=O)Nc2ccc3c(c2)OCO3)c1 | 19.9%
CN(Cc1ccccn1)C(=O)C1CCC(=O)N(Cc2cccc(F)c2)C1 (stereo not drawn) | 8.55%
COc1cccc(NC(=O)c2ccc(NC(=O)C(C)C)cc2)c1 | 6.71%
O=C(Nc1ccccc1N1CCOCC1)c1cnccn1 | 6.5%
Cc1cc(C(=O)CN2C(=O)CN(C)C2=O)c(C)n1-c1cccc(S(=O)(=O)N2CCOCC2)c1 | -4.32%
COc1cccc(/C=C/C(=O)OCC(=O)Nc2cc(C(F)(F)F)ccc2Cl)c1 | 8.68%
CC(C(=O)c1ccccc1)n1c(N2CCOCC2)nc2c1c(=O)n(C)c(=O)n2C (stereo not drawn) | 14.4%
Cc1cc(C=O)c(C)n1C(C)C | 5.56%
COc1ccc(-n2cc(C(=O)Nc3cc([N+](=O)[O-])ccc3OC)c3ccccc3c2=O)cc1 | 7.23%
COc1ccc(NC(=O)CN(C)S(=O)(=O)c2cnc[nH]2)cc1 | 16.5%
COC(=O)c1ccc(CNC(=O)c2c3c(nc4ccccc24)CCN(Cc2ccccc2)C3)cc1 | 13.6%
CN(C)S(=O)(=O)c1ccc(N2CCCC2)c(C(=O)NNC(=O)COc2ccc(Cl)cc2)c1 | 2%
CC(=O)c1cc(C(=O)Nc2ccc3ccccc3c2)c(C)o1 | 9.57%
CCc1nnc(NC(=O)C(CC)c2ccccc2)s1 (stereo not drawn) | 13.7%
O=S(=O)(NC1CC1)c1ccc(S(=O)(=O)N2CCCc3ccccc32)cc1 | 6.59%
CN(CCCN1CCOCC1)C(=O)c1ccc2nc(Cc3cccc(Cl)c3)oc2c1 | 8.09%
Cc1ccc2c(CN3CCN(C(=O)c4ccco4)CC3)cc(=O)oc2c1C | -17.1%
CCSc1nnc(NC(=O)c2csc3c2CCC(C)C3)s1 (stereo not drawn) | -3.17%
CCN(CC(=O)Nc1ccc2c(c1)OCCO2)Cc1cc(=O)oc2c(C)c(C)ccc12 | -16.9%
N#C/C(=C/c1ccc(C(=O)O)cc1)C(=O)Nc1ccccc1 | 20.4%

Compound | hERG current change (%, negative = inhibition) at 1uM
CC(/C=N/n1c(-c2ccccn2)n[nH]c1=S)=C\c1ccccc1 | 6.7%
CN(C(=O)COC(=O)c1cc([N+](=O)[O-])ccc1N1CCCC1)C1CCS(=O)(=O)C1 (stereo not drawn) | 8.44%
N#Cc1ccc(/C=C\c2nccc3c2[nH]c2ccccc23)cc1 | 0.614%
Cc1c(N2C(=O)C3C4C=CC(C5CC45)C3C2=O)c(=O)n(-c2ccccc2)n1C (stereo not drawn) | 4.96%
CC(C)c1ccc(N(C(=O)c2cc3ccccc3oc2=O)C2C=CS(=O)(=O)C2)cc1 (stereo not drawn) | 8.05%
CCN1CCN(C(c2cc3cccc(C)c3[nH]c2=O)c2nnnn2Cc2ccccc2)CC1 (stereo not drawn) | 1.71%
Cn1c(SCC(=O)NC2CCCCC2)nnc1-c1ccccc1F | 14.1%
CC1CCN(C(=O)c2ccc(S(=O)(=O)N3CCOCC3)cc2)CC1 | 12.3%
CCCC(=O)Nc1cc(Cl)ccc1N1CCN(C(=O)CC)CC1 | 3.29%
C=CCNC(=O)c1c(N)n(Cc2ccco2)c2nc3ccccc3nc12 | 10.8%
O=C(CCN1C(=O)c2ccccc2C1=O)NC1=NCCS1 | 24.5%
Cc1cccc(C)c1OCc1cc(C(=O)NCc2cn(C)nc2C)no1 | 1.56%
COc1cccc(N2CCN(C(=O)c3cc4c(=O)n(Cc5ccccc5)ccc4nc3C)CC2)c1 | -5%
Cn1c(=O)c(Sc2ccccc2)c(O)c2ccccc21 | 13.7%
CCOC(=O)C1CC(c2ccccc2)=NNC1=O (stereo not drawn) | -10.8%
Cc1cc(/C=N/NC(=O)c2cccc([N+](=O)[O-])c2)c(C)n1-c1ccc(Cl)cc1Cl | 8.29%
Cc1cc(C)cc(C(=O)NC(CC(N)=O)c2ccc(NCCN3CCCC3)c([N+](=O)[O-])c2)c1 (stereo not drawn) | 9.15%
Cc1ccc(-c2csc3nc4ccc(C(=O)NCCO)cc4c(=O)n23)cc1 | 8.63%
O=C(N/N=C/c1ccc(OCc2ccccc2)cc1)c1ccncc1 | 9.85%
COC(=O)c1n[nH]n(-c2cc(Cl)cc(Cl)c2)c1=O | 13.8%
Cc1nnc(NC(=O)CSc2nnc(Cc3cccn3C)n2-c2cccc(C(F)(F)F)c2)s1 | 10.4%
CCOc1cc(CNCCc2ccc(S(N)(=O)=O)cc2)ccc1OCc1ccc(Cl)cc1.Cl | -11.9%
Cc1cc(C)cc(C(=O)NC(CC(N)=O)c2ccc(N3CCN(c4ccccn4)CC3)c([N+](=O)[O-])c2)c1 (stereo not drawn) | 12.9%
O=C(c1cc2c(=O)n3ccccc3nc2s1)N1CCN(Cc2ccccc2)CC1 | -2.14%
COc1ccc(/C=C(/NC(=O)c2ccccc2)C(=O)N2CCOCC2)cc1OC | 19.1%
Cc1ccc2cc3cc(C(=O)N4CCN(Cc5ccccc5)CC4)sc3nc2c1 | 14.8%
COc1ccc(CNc2nc(NCc3ccc(OC)cc3)n(S(C)(=O)=O)n2)cc1 | -1.52%
